The record followed here is PubChem BioAssay (NCI).

Each structure is given as a SMILES string.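 Method: 48-hour compound exposure of cells in 96-well plates, five concentrations, linear interpolation of endpoints. GI50 is the concentration that inhibits growth by half. TGI: total growth inhibition.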

This experiment deals with NCI-H322M lung. The experiment in a line: growth of human tumour cells (NCI), 48 h.
In the case of `CC1=CC(=O)CC(C)(C)[C@@]1(O)/C=C/C(C)=C\C(=O)O`, the GI50 was 895 nM and the TGI is 2.87 µM.
On to `C#Cc1nc(/C=C/C(=O)NO)cs1`, for which the GI50 is 5860 nM and the TGI is more than 100 µM.
Taken in the same sequence, the figures for `CCNCCCn1c2c(c3cc(OC)c(OC)cc3c1=O)C(=O)c1cc(OC)cnc1-2` were 1540 nM and more than 52.8 µM.
